Data taken from the supplement of paper PMC10126150.
Sequences with one replicate were seen in a single cluster, so their values are uncertain.

Tested on: ATP
Test: switch fluorescence ratio, 500 uM ATP over buffer (Cy3 cluster intensity, sum of 5 cycles each) (fold (ratio)); higher = stronger signal-on switching upon ATP binding; sequences stand for … in TCGTCGGCAGCGTCAGATGTGTATAAGAGACAGTTTTTTTTTTTTTTTTTTTTTTTTT…TC
Settings: aptamer strand: ATP DNA aptamer (quencher-CACCTGGGGGAGTATTGCGGAGGAAGG + anchor), 100 nM annealed; ATP concentration: 500 uM; one replicate
Outline: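 Clusters with intensities outside 100-1000 RFU were excluded. The remaining Cy3-labelled switching-strand clusters on a modified Illumina MiSeq flow-cell had been annealed to 100 nM quencher-labelled ATP aptamer and imaged in selection buffer, then after 15 min with 500 uM ATP at 22 °C, for five cycles separated by NaOH stripping and re-annealing. The fluorescence ratio, averaged per switch-domain sequence, is each cluster's summed target-cycle Cy3 intensity over its summed buffer-cycle Cy3 intensity.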
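Further: ATP exposure 15 min at 22 °C before imaging.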

Sequence: GAAGCTATCG
- switch fluorescence ratio: 1.13

Sequence: ATCCGGGAGA
- switch fluorescence ratio: 1.08

Sequence: ATTTGGGAGC
- switch fluorescence ratio: 0.973

Sequence: CTTATTCTAT
- switch fluorescence ratio: 0.991

Sequence: TGAGCGGTG
- switch fluorescence ratio: 1.01

Sequence: GACGGTGTAG
- switch fluorescence ratio: 1.02

Sequence: TTCCAGTA
- switch fluorescence ratio: 1.03

Sequence: CCAGTCTTTG
- switch fluorescence ratio: 1.02

Sequence: GTTTATGCTA
- switch fluorescence ratio: 1.05

Sequence: GCCGAAAATT
- switch fluorescence ratio: 0.965

Sequence: CAACGATACG
- switch fluorescence ratio: 1.16

Sequence: CTGTTTCGAA
- switch fluorescence ratio: 1.01

Sequence: CTGGTAATCA
- switch fluorescence ratio: 0.971

Sequence: GACGGGAGCA
- switch fluorescence ratio: 1.17

Sequence: GTCGTGGGAG
- switch fluorescence ratio: 0.963

Sequence: CTAGGGAAGT
- switch fluorescence ratio: 1

Sequence: GCTTCGCAAA
- switch fluorescence ratio: 2.2

Sequence: TAGTAATTAT
- switch fluorescence ratio: 1.03

Sequence: CCGTCGATCG
- switch fluorescence ratio: 1.01

Sequence: GGGTACACGC
- switch fluorescence ratio: 0.984

Sequence: GCGAACCTCG
- switch fluorescence ratio: 1.03

Sequence: CCTATGTGTT
- switch fluorescence ratio: 1.03

Sequence: CGTTGAGTAG
- switch fluorescence ratio: 1.01

Sequence: ACACAGCATT
- switch fluorescence ratio: 1.2

Sequence: AAATTAAAGT
- switch fluorescence ratio: 0.944

Sequence: GGCGGCAAAT
- switch fluorescence ratio: 1.03

Sequence: TCGTCGCTTC
- switch fluorescence ratio: 1.27

Sequence: TAAGGGTA
- switch fluorescence ratio: 0.989

Sequence: CAAGTGAAAC
- switch fluorescence ratio: 0.97

Sequence: CGGCCCAGCA
- switch fluorescence ratio: 1.07

Sequence: AAAATATGAA
- switch fluorescence ratio: 1.02

Sequence: GTCTAAAAT
- switch fluorescence ratio: 1.01

Sequence: GCCGAGCTTA
- switch fluorescence ratio: 1.06

Sequence: ACGTGCGGGA
- switch fluorescence ratio: 1.03

Sequence: TGATGTCAAA
- switch fluorescence ratio: 0.955

Sequence: TAACGTCCCT
- switch fluorescence ratio: 0.972

Sequence: TACGTAAAGC
- switch fluorescence ratio: 1.44

Sequence: GACGAAGTAA
- switch fluorescence ratio: 2.03

Sequence: AGTTTTCGCC
- switch fluorescence ratio: 1.02

Sequence: AGCGTCTTA
- switch fluorescence ratio: 1

Sequence: TCTAAATCGG
- switch fluorescence ratio: 1.03

Sequence: CACGCGGGA
- switch fluorescence ratio: 0.996

Sequence: GGTATATGGA
- switch fluorescence ratio: 1.04

Sequence: GTTAGGCAGG
- switch fluorescence ratio: 0.996

Sequence: AATGTGCACG
- switch fluorescence ratio: 1.02

Sequence: AAGACTTATA
- switch fluorescence ratio: 1.03

Sequence: TTGTTATCTT
- switch fluorescence ratio: 1

Sequence: TTTGACCTTT
- switch fluorescence ratio: 0.979

Sequence: TTTTCATGAA
- switch fluorescence ratio: 0.968

Sequence: CCTTCATTAA
- switch fluorescence ratio: 1.05

Sequence: CCTCTAAGAG
- switch fluorescence ratio: 1.49

Sequence: GCTCCGTCCG
- switch fluorescence ratio: 1.3

Sequence: AGGTGTTGTT
- switch fluorescence ratio: 1.01

Sequence: GGTGCTCCGG
- switch fluorescence ratio: 1.06

Sequence: CGTCAGGACA
- switch fluorescence ratio: 1

Sequence: GTCGTCGCGG
- switch fluorescence ratio: 1.03

Sequence: CATTCTGTAT
- switch fluorescence ratio: 1.02

Sequence: TTCCTTGCTA
- switch fluorescence ratio: 1.92

Sequence: AGATCAGAAA
- switch fluorescence ratio: 0.994

Sequence: AACCAGTATG
- switch fluorescence ratio: 0.962

Sequence: CTGCTATCGT
- switch fluorescence ratio: 1.03

Sequence: ACCGCGGGAG
- switch fluorescence ratio: 1.05

Sequence: TACACTTTTG
- switch fluorescence ratio: 1.01

Sequence: GCGTAAAATA
- switch fluorescence ratio: 1.02

Sequence: GGTCGGTTAT
- switch fluorescence ratio: 1.07

Sequence: TGTTGCGATG
- switch fluorescence ratio: 0.998

Sequence: AGGGCTTGG
- switch fluorescence ratio: 1.01

Sequence: GTCCTGGGAC
- switch fluorescence ratio: 1.01

Sequence: GTCCAGGTAC
- switch fluorescence ratio: 1.23

Sequence: GAAATCAGTA
- switch fluorescence ratio: 0.954

Sequence: GCTCCTCCA
- switch fluorescence ratio: 1.38

Sequence: GTTACTCGGG
- switch fluorescence ratio: 0.966

Sequence: GCAGGATCGT
- switch fluorescence ratio: 0.998

Sequence: CTATATTTAA
- switch fluorescence ratio: 0.997

Sequence: AACGTTCTC
- switch fluorescence ratio: 1.06

Sequence: GCGTACAGTT
- switch fluorescence ratio: 1

Sequence: AGATATGTAG
- switch fluorescence ratio: 1.07

Sequence: GTATGGCTGT
- switch fluorescence ratio: 0.979

Sequence: TAATGTGATA
- switch fluorescence ratio: 1.01

Sequence: TAAATGTGCC
- switch fluorescence ratio: 1.03

Sequence: GGTACACGTA
- switch fluorescence ratio: 1.04

Sequence: GAGGAGAGTG
- switch fluorescence ratio: 0.992

Sequence: CGGCAAGTCG
- switch fluorescence ratio: 1

Sequence: CGATAAAACT
- switch fluorescence ratio: 0.959

Sequence: TATTACCCTC
- switch fluorescence ratio: 1.03

Sequence: CGCGATGACA
- switch fluorescence ratio: 1.05

Sequence: TGACTCTTCT
- switch fluorescence ratio: 0.976

Sequence: TACTCGCTAA
- switch fluorescence ratio: 1.28

Sequence: AAAAACCTAG
- switch fluorescence ratio: 1.05

Sequence: CCGAAAATAA
- switch fluorescence ratio: 1.14

Sequence: TATGGAAAAA
- switch fluorescence ratio: 0.962

Sequence: CCTGGTCTAG
- switch fluorescence ratio: 0.952

Sequence: GACCGATGAA
- switch fluorescence ratio: 1.04

Sequence: GATGCAGTCG
- switch fluorescence ratio: 1.01

Sequence: AATGGTGTTG
- switch fluorescence ratio: 1.01

Sequence: TACGACCGGG
- switch fluorescence ratio: 1.02

Sequence: TAGCCGGATT
- switch fluorescence ratio: 1.11

Sequence: TCGGGGCACC
- switch fluorescence ratio: 1.05

Sequence: AATACCGACC
- switch fluorescence ratio: 2.31

Sequence: TCTGCGTAAA
- switch fluorescence ratio: 1.03

Sequence: AACCAGTGGT
- switch fluorescence ratio: 1.04

Sequence: GATTCATCCT
- switch fluorescence ratio: 1.08

Sequence: CTCGACCTAC
- switch fluorescence ratio: 1.8

Sequence: GGGCCACTCT
- switch fluorescence ratio: 1.03

Sequence: TACGTTCTCA
- switch fluorescence ratio: 0.977

Sequence: GCGAGGCATA
- switch fluorescence ratio: 1.98

Sequence: ATACTGGGCA
- switch fluorescence ratio: 1.07

Sequence: TGGATTGAGG
- switch fluorescence ratio: 0.983

Sequence: GCGTTAATA
- switch fluorescence ratio: 1

Sequence: ATTTAGAGAG
- switch fluorescence ratio: 1.01

Sequence: CCTGGCACGC
- switch fluorescence ratio: 1.64

Sequence: AGTCTCTGCT
- switch fluorescence ratio: 1

Sequence: AGAACTTTGT
- switch fluorescence ratio: 0.958

Sequence: GACTTTGAAA
- switch fluorescence ratio: 1.03

Sequence: AATAGCCAAA
- switch fluorescence ratio: 0.963

Sequence: ATACTTTCTG
- switch fluorescence ratio: 1.01

Sequence: ATTTAGACGG
- switch fluorescence ratio: 1.04

Sequence: TTGGGACAGG
- switch fluorescence ratio: 1.02

Sequence: ATGTTAAATA
- switch fluorescence ratio: 0.969

Sequence: AGAACCC
- switch fluorescence ratio: 1.03

Sequence: TCGAAATGTT
- switch fluorescence ratio: 0.984

Sequence: CAATTGATGG
- switch fluorescence ratio: 0.986

Sequence: TCGACGACTT
- switch fluorescence ratio: 1.15

Sequence: CAGGACCAAG
- switch fluorescence ratio: 0.991

Sequence: GGCCGCGCGG
- switch fluorescence ratio: 1.02

Sequence: CTGGGCTGGA
- switch fluorescence ratio: 0.985

Sequence: CATAACCAGG
- switch fluorescence ratio: 1.43

Sequence: AATCCGTCGG
- switch fluorescence ratio: 1.03

Sequence: ACGCCTATGG
- switch fluorescence ratio: 0.943

Sequence: ACGCGGTACG
- switch fluorescence ratio: 1.08

Sequence: GGGAGGGAGA
- switch fluorescence ratio: 1.03

Sequence: GTCATTTTTT
- switch fluorescence ratio: 0.995

Sequence: CTGCCTACC
- switch fluorescence ratio: 1.26

Sequence: GGTTTGGCCG
- switch fluorescence ratio: 1.21

Sequence: AGGTAGGGTT
- switch fluorescence ratio: 1.04

Sequence: ACGGTCCTAT
- switch fluorescence ratio: 1.01

Sequence: TCCTAGTATG
- switch fluorescence ratio: 0.969

Sequence: GGTATTTTTC
- switch fluorescence ratio: 1.03

Sequence: CATGGACATT
- switch fluorescence ratio: 0.968

Sequence: CTATATGTAG
- switch fluorescence ratio: 1.01

Sequence: AAATTCGACA
- switch fluorescence ratio: 0.99

Sequence: TTGTTGACAC
- switch fluorescence ratio: 1.06

Sequence: GCTTTCTCTA
- switch fluorescence ratio: 0.992

Sequence: ACGCCGGTCG
- switch fluorescence ratio: 1.04

Sequence: ACAGCTCCTA
- switch fluorescence ratio: 1.08

Sequence: ATCGACTCAT
- switch fluorescence ratio: 1.03

Sequence: CAATCCGGAT
- switch fluorescence ratio: 0.984

Sequence: TAGGATCGG
- switch fluorescence ratio: 1.02

Sequence: ATTTAGCTGC
- switch fluorescence ratio: 1.03

Sequence: GTAGTGCCGT
- switch fluorescence ratio: 0.995

Sequence: GGGCAGCAAT
- switch fluorescence ratio: 1.72

Sequence: CACAGTTTCA
- switch fluorescence ratio: 0.997

Sequence: TCATTCGGGA
- switch fluorescence ratio: 0.99

Sequence: TTTGGCCTTG
- switch fluorescence ratio: 1.04

Sequence: TCCGACATTC
- switch fluorescence ratio: 2.79

Sequence: GGCAGTGTTG
- switch fluorescence ratio: 0.99

Sequence: ACCTTCTTGT
- switch fluorescence ratio: 1.11
